{"source": "the supplement of paper PMC8728848", "experiment_in_all_cases": "glycan array binding signal (z-score within array); higher = stronger binding", "details_in_all_cases": "glycan notation: IUPAC condensed, linker removed", "key": {"Neu5Ac(a2-8)Neu5Ac": {"target": "Neu5Ac(a2-8)Neu5Ac", "method_in_brief": "(§1)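 Glycan array data came from 3228 arrays in the Consortium for Functional Glycomics database, and only arrays with an available protein sequence were kept. Glycan names were put into IUPAC-condensed notation, and columns mapping to the same glycan were averaged. The binding signal is a within-array Z-score, averaged across arrays of one protein sequence run at different concentrations or buffers and across linkers. A negative Z-score can be read as non-binding.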"}, "[1]": {"target": "Neu5Ac(a2-8)Neu5Ac(a2-3)Gal(b1-3)GalNAc(b1-4)[Neu5Ac(a2-3)]Gal(b1-4)Glc", "method_in_brief": "as §1"}, "[2]": {"target": "Neu5Ac(a2-8)Neu5Ac(a2-3)Gal(b1-3)GalNAc(b1-4)[Neu5Ac(a2-8)Neu5Ac(a2-3)]Gal(b1-4)Glc", "method_in_brief": "as §1"}, "[3]": {"target": "Neu5Ac(a2-8)Neu5Ac(a2-3)Gal(b1-4)Glc", "method_in_brief": "as §1"}, "[4]": {"target": "Neu5Ac(a2-8)Neu5Ac(a2-3)Gal(b1-4)GlcNAc", "method_in_brief": "as §1"}, "[5]": {"target": "Neu5Ac(a2-8)Neu5Ac(a2-3)[Gal(b1-3)GalNAc(b1-4)]Gal(b1-4)Glc", "method_in_brief": "as §1"}, "[6]": {"target": "Neu5Ac(a2-8)Neu5Ac(a2-3)[GalNAc(b1-4)]Gal(b1-4)Glc", "method_in_brief": "as §1"}, "[7]": {"target": "Neu5Ac(a2-8)Neu5Ac(a2-8)Neu5Ac", "method_in_brief": "as §1"}, "[8]": {"target": "Neu5Ac(a2-8)Neu5Ac(a2-8)Neu5Ac(a2-3)Gal(b1-4)Glc", "method_in_brief": "as §1"}, "[9]": {"target": "Neu5Ac(a2-8)Neu5Ac(a2-8)Neu5Ac(a2-3)[Gal(b1-3)GalNAc(b1-4)]Gal(b1-4)Glc", "method_in_brief": "as §1"}, "[10]": {"target": "Neu5Ac(a2-8)Neu5Ac(a2-8)Neu5Ac(a2-3)[GalNAc(b1-4)]Gal(b1-4)Glc", "method_in_brief": "as §1"}, "[11]": {"target": "Neu5Ac(a2-8)Neu5Ac(a2-8)Neu5Ac(a2-8)Neu5Ac(a2-3)[GalNAc(b1-4)]Gal(b1-4)Glc", "method_in_brief": "as §1"}, "[12]": {"target": "Neu5Ac(a2-8)Neu5Gc(a2-3)Gal(b1-4)GlcNAc", "method_in_brief": "as §1"}, "[13]": {"target": "Neu5Ac(b2-6)Gal(b1-4)GlcNAc", "method_in_brief": "as §1"}, "Neu5Ac(b2-6)GalNAc": {"target": "Neu5Ac(b2-6)GalNAc", "method_in_brief": "as §1"}, "[14]": {"target": "Neu5Ac9Ac(a2-3)Gal(b1-3)GlcNAc", "method_in_brief": "as §1"}, "[15]": {"target": "Neu5Ac9Ac(a2-3)Gal(b1-4)GlcNAc", "method_in_brief": "as §1"}, "[16]": {"target": "Neu5Ac9Ac(a2-6)Gal(b1-4)GlcNAc", "method_in_brief": "as §1"}, "[17]": {"target": "Neu5Gc(a2-3)Gal(b1-3)GlcNAc", "method_in_brief": "as §1"}, "[18]": {"target": "Neu5Gc(a2-3)Gal(b1-3)[Fuc(a1-4)]GlcNAc", "method_in_brief": "as §1"}, "Neu5Gc(a2-3)Gal(b1-4)Glc": {"target": "Neu5Gc(a2-3)Gal(b1-4)Glc", "method_in_brief": "as §1"}, "[19]": {"target": "Neu5Gc(a2-3)Gal(b1-4)GlcNAc", "method_in_brief": "as §1"}, "[20]": {"target": "Neu5Gc(a2-3)Gal(b1-4)GlcNAc(b1-3)Gal(b1-4)GlcNAc(b1-2)Man(a1-3)[Neu5Gc(a2-3)Gal(b1-4)GlcNAc(b1-3)Gal(b1-4)GlcNAc(b1-2)Man(a1-6)]Man(b1-4)GlcNAc(b1-4)GlcNAc", "method_in_brief": "as §1"}, "[21]": {"target": "Neu5Gc(a2-3)Gal(b1-4)[Fuc(a1-3)]GlcNAc", "method_in_brief": "as §1"}, "[22]": {"target": "Neu5Gc(a2-6)Gal(b1-4)GlcNAc", "method_in_brief": "as §1"}, "Neu5Gc(a2-6)GalNAc": {"target": "Neu5Gc(a2-6)GalNAc", "method_in_brief": "as §1"}, "[23]": {"target": "Neu5Gc(a2-8)Neu5Ac(a2-3)Gal(b1-4)GlcNAc", "method_in_brief": "as §1"}, "[24]": {"target": "Neu5Gc(a2-8)Neu5Gc(a2-3)Gal(b1-4)GlcNAc", "method_in_brief": "as §1"}, "[25]": {"target": "Neu5Gc(a2-8)Neu5Gc(a2-3)Gal(b1-4)GlcNAc(b1-3)Gal(b1-4)GlcNAc", "method_in_brief": "as §1"}, "[26]": {"target": "Neu5Gc(a2-8)Neu5Gc(a2-6)Gal(b1-4)GlcNAc", "method_in_brief": "as §1"}, "[27]": {"target": "Neu5Gc(b2-6)Gal(b1-4)GlcNAc", "method_in_brief": "as §1"}}, "note": "The other results are listed elsewhere or left out.", "data": [{"binder": "PX9937A-bvu-521-23-521 (Bacteroides vulgatus) (protein) LDLAPEDYYGAGNFWKEASQPKAFMLGLHAQLRSYYDMFYTLGELRGGTQRVGTSSLNTSLNYADIRSQNISEDIPGISNWNGLYSPIMQVNHFIQEVENGCTFLDDATRSRYLGQAYGMRALYYFMLYRTFGGVPLITKVDILDGKPSADKFYVERATPEATMEFIKADINKSENYFGNNTSFDAYDWSRYATLMLKAEIYMWAAKVSITGFTATGATDLQTAKTALSGIIGHFELMDNFASIFSCDNKKNTEIIFAMPFIEGEASNDGGRFLYQDAVFLGQAYGRNGKVIEKDTLNLKGTGGVFRDEYTEDFWKTFKEGDSRRDATFMEYYMKNDNGTLSEFGCVMKKRIGTINSNDNRIYISDIPVYRYADALLMMAEIENGLNNPCASYINEVRKRAYGDTFEENKYTEGSYAENELAILQERDKEFVSEGKRWFDVLRMHDASGRSLVFSANANYPGTNPILGTEEAYKMLWPVNIGTLNVNPLLTQTPGYGKK", "values": [{"measurement": "glycan array binding signal (z-score)", "setting": "Neu5Ac(a2-8)Neu5Ac", "value": -0.065}, {"measurement": "glycan array binding signal (z-score)", "setting": "[1]", "value": 0.037}, {"measurement": "glycan array binding signal (z-score)", "setting": "[2]", "value": -0.237}, {"measurement": "glycan array binding signal (z-score)", "setting": "[3]", "value": -0.003}, {"measurement": "glycan array binding signal (z-score)", "setting": "[4]", "value": -0.615}, {"measurement": "glycan array binding signal (z-score)", "setting": "[5]", "value": -0.181}, {"measurement": "glycan array binding signal (z-score)", "setting": "[6]", "value": -0.527}, {"measurement": "glycan array binding signal (z-score)", "setting": "[7]", "value": -0.086}, {"measurement": "glycan array binding signal (z-score)", "setting": "[8]", "value": -0.218}, {"measurement": "glycan array binding signal (z-score)", "setting": "[9]", "value": 0.429}, {"measurement": "glycan array binding signal (z-score)", "setting": "[10]", "value": -0.377}, {"measurement": "glycan array binding signal (z-score)", "setting": "[11]", "value": -0.029}, {"measurement": "glycan array binding signal (z-score)", "setting": "[12]", "value": 10.6}, {"measurement": "glycan array binding signal (z-score)", "setting": "[13]", "value": 0.159}, {"measurement": "glycan array binding signal (z-score)", "setting": "Neu5Ac(b2-6)GalNAc", "value": -0.058}, {"measurement": "glycan array binding signal (z-score)", "setting": "[14]", "value": -0.381}, {"measurement": "glycan array binding signal (z-score)", "setting": "[15]", "value": 0.442}, {"measurement": "glycan array binding signal (z-score)", "setting": "[16]", "value": 0.304}, {"measurement": "glycan array binding signal (z-score)", "setting": "[17]", "value": -0.007}, {"measurement": "glycan array binding signal (z-score)", "setting": "[18]", "value": -0.256}, {"measurement": "glycan array binding signal (z-score)", "setting": "Neu5Gc(a2-3)Gal(b1-4)Glc", "value": -0.197}, {"measurement": "glycan array binding signal (z-score)", "setting": "[19]", "value": -0.16}, {"measurement": "glycan array binding signal (z-score)", "setting": "[20]", "value": -0.608}, {"measurement": "glycan array binding signal (z-score)", "setting": "[21]", "value": 0.176}, {"measurement": "glycan array binding signal (z-score)", "setting": "[22]", "value": -0.633}, {"measurement": "glycan array binding signal (z-score)", "setting": "Neu5Gc(a2-6)GalNAc", "value": -0.419}, {"measurement": "glycan array binding signal (z-score)", "setting": "[23]", "value": -0.159}, {"measurement": "glycan array binding signal (z-score)", "setting": "[24]", "value": -0.264}, {"measurement": "glycan array binding signal (z-score)", "setting": "[25]", "value": -0.58}, {"measurement": "glycan array binding signal (z-score)", "setting": "[26]", "value": -0.482}, {"measurement": "glycan array binding signal (z-score)", "setting": "[27]", "value": -0.267}]}]}
